Assay results reported in PubChem BioAssay (Tox21).
This list was built around the results that the source calls inconclusive (neither active nor inactive); the mix of calls is not that of the screen. Potencies of inconclusive entries are left out as doubtful fits. The source made the active and inactive calls. Calls follow the shape of the dose curve; as a rule, active = well fitted cell-killing curve with a large enough effect in the repeat runs; inconclusive = weak or mixed curves, or effect the other way; inactive = no such curve, though single readings can be large or run the other way.

Assay: qHTS assay for identifying genotoxic compounds that show differential cytotoxicity against isogenic chicken DT40 cell lines with known DNA damage response pathways - Rev3 mutant cell line (AID 743014); also: nearly all actives have a fitted effect of over 55% in size
Settings: chicken DT40 Rev3-/- viability, CellTiter-Glo, 40 h; activity, negative = cytotoxicity: at 68.4 µM (top of the series)
% is scaled to controls: 0 for no effect and ±100 for the full control effect; potency is read from the fitted curve at half-maximal effect; tags tell the direction and shape of the fitted curve.

SMILES | Potency | activity, negative = cytotoxicity
Brc1cc(Br)c(Oc2cc(Br)c(Br)cc2Br)cc1Br | inconclusive [cytotoxic, single point] | –
C/C=C/C=C/C(=O)O | inconclusive [cytotoxic, single point] | –
CCCCOC(=O)C(C)O (stereo not given) | – | inactive: -20.6%
O=C(NS(=O)(=O)/C=C/c1ccccc1)c1ccc(F)cc1Cl | inconclusive [cytotoxic, single point] | –
Oc1cccc(-c2c3nc(c(-c4cccc(O)c4)c4ccc([nH]4)c(-c4cccc(O)c4)c4nc(c(-c5cccc(O)c5)c5ccc2[nH]5)CC4)C=C3)c1 | inconclusive [cytotoxic, single point] | –
COc1cc(OC)cc(OC)c1 | – | inactive: 17.4%
CN(C)CCC=C1c2ccccc2C=Cc2ccccc21 | active: 8.41 µM | –
CN(N=O)C(=O)N[C@@H]1[C@@H](O)[C@H](O)[C@@H](CO)O[C@@H]1O | inconclusive [cytotoxic, partial curve] | –
CCCCN(CCCC)CCC(O)c1cc2c(Cl)cc(Cl)cc2c2cc(C(F)(F)F)ccc12 (stereo not given) | inconclusive [cytotoxic, partial curve] | –
O=C(Cn1ccnc1[N+](=O)[O-])NCCO | – | inactive: -2.54%
CNS(=O)(=O)c1cc(C(=O)N2CCC(CCN3C4CCC3CC(n3c(C)nc5ccccc53)C4)(c3cccc(F)c3)CC2)c(Cl)cc1F (stereo not given) | active: 5.45 µM | –
O=C(Nc1ccc2c(O)c(N=Nc3ccc(N=Nc4ccc(S(=O)(=O)O)cc4)cc3)c(S(=O)(=O)O)cc2c1)c1ccccc1 | inconclusive [cytotoxic, partial curve] | –
CCC1NC(=O)c2cc(S(N)(=O)=O)c(Cl)cc2N1 (stereo not given) | inconclusive [rising, partial curve, poor fit] | –
O=C(O)CCCCCCCC(=O)O | inactive | –
COC(=O)c1ccc(O)cc1 | inconclusive [cytotoxic, partial curve] | –
CC1CC(OC(=O)C(O)c2ccccc2)CC(C)(C)N1C (stereo not given) | inconclusive [rising, partial curve, poor fit] | –
CC(C)(C)C1=CC(=O)C=C(C(C)(C)C)C1=O | inconclusive [cytotoxic, partial curve] | –
COc1ccc(C(=O)c2ccccc2)c(O)c1 | inconclusive [cytotoxic, partial curve, poor fit] | –

SMILES | Potency | activity, negative = cytotoxicity
C=CCc1ccccc1OCC(O)CNC(C)C (stereo not given) | inconclusive [cytotoxic, partial curve] | –
C=C1CCC2CC1C2(C)C (stereo not given) | – | inactive: 1.02%
COc1cc(C(=O)NS(=O)(=O)c2ccccc2C)ccc1Cc1cn(C)c2ccc(NC(=O)OC3CCCC3)cc12 | inconclusive [cytotoxic] | –
CC(O)CN(CCN(CC(C)O)CC(C)O)CC(C)O (stereo not given) | inconclusive [rising, partial curve, poor fit] | –
CC(=O)Oc1ccc(C(=C2CCCCC2)c2ccc(OC(C)=O)cc2)cc1 | inconclusive [rising, partial curve, poor fit] | –
CCC(C)(C)C1CCCCC1OC(C)=O (stereo not given) | inconclusive [cytotoxic, single point] | –
Clc1ccnc(Cl)n1 | – | inactive: 3.39% [at 95 µM]
OCCN1CCNCC1 | inconclusive [cytotoxic, single point] | –
CN(C)c1nc(N(C)C)nc(N(C)C)n1 | inactive | –
C/C=C(/C(=C/C)c1ccc(O)cc1)c1ccc(O)cc1 | inconclusive [cytotoxic] | –
CC1CC(C)C(=O)C1=O (stereo not given) | – | inactive: 10.5%
CCCNC(C)C(=O)Nc1ccccc1C (stereo not given) | inconclusive [rising, partial curve, poor fit] | –
O=c1oc(=O)c2cc3c(=O)oc(=O)c3cc12 | inactive | –
Cc1ncc[nH]1 | inconclusive [cytotoxic, single point] | –
CC(=O)O[C@]1(C(C)=O)CC[C@H]2[C@@H]3C=C(Cl)C4=CC(=O)CC[C@]4(C)[C@H]3CC[C@@]21C | inconclusive [cytotoxic, full curve] | –
Nc1ccn([C@H]2CS[C@@H](CO)O2)c(=O)n1 | inconclusive [cytotoxic, full curve] | –
Nc1ncnc2c1ncn2[C@@H]1O[C@H](COP(=O)(O)O)[C@@H](O)[C@H]1O | inconclusive [rising, full curve] | –
